From the supplement of paper PMC12423691
Some of the results follow. Binding of human transcription factors and regulators to the viral nucleoprotein by AlphaScreen, crude cell-free proteins, amounts not normalised, one pass. Fold of the Venus control; higher = more signal. No active / inactive call. Single-pass screen; sequences are the whole Swiss-Prot entries looked up by name.

B1: IRF8, Q02556 (protein)
chain: MCDRNGGRRLRQWLIEQIDSSMYPGLIWENEEKSMFRIPWKHAGKQDYNQEVDASIFKAWAVFKGKFKEGDKAEPATWKTRLRCALNKSPDFEEVTDRSQLDISEPYKVYRIVPEEEQKCKLGVATAGCVNEVTEMECGRSEIDELIKEPSVDDYMGMIKRSPSPPEACRSQLLPDWWAQQPSTGVPLVTGYTTYDAHHSAFSQMVISFYYGGKLVGQATTTCPEGCRLSLSQPGLPGTKLYGPEGLELVRFPPADAIPSERQRQVTRKLFGHLERGVLLHSSRQGVFVKRLCQGRVFCSGNAVVCKGRPNKLERDEVVQVFDTSQFFRELQQFYNSQGRLPDGRVVLCFGEEFPDMAPLRSKLILVQIEQLYVRQLAEEAGKSCGAGSVMQAPEEPPPDQVFRMFPDICASHQRSFFRENQQITV
B2: SNAI3, Q3KNW1 (protein)
chain: MPRSFLVKTHSSHRVPNYRRLETQREINGACSACGGLVVPLLPRDKEAPSVPGDLPQPWDRSSAVACISLPLLPRIEEALGASGLDALEVSEVDPRASRAAIVPLKDSLNHLNLPPLLVLPTRWSPTLGPDRHGAPEKLLGAERMPRAPGGFECFHCHKPYHTLAGLARHRQLHCHLQVGRVFTCKYCDKEYTSLGALKMHIRTHTLPCTCKICGKAFSRPWLLQGHVRTHTGEKPYACSHCSRAFADRSNLRAHLQTHSDAKKYRCRRCTKTFSRMSLLARHEESGCCPGP
B3: TFCP2L1, Q9NZI6 (protein)
chain: MLFWHTQPEHYNQHNSGSYLRDVLALPIFKQEEPQLSPENEARLPPLQYVLCAATSPAVKLHEETLTYLNQGQSYEIRLLENRKLGDFQDLNTKYVKSIIRVVFHDRRLQYTEHQQLEGWRWSRPGDRILDIDIPLSVGILDPRASPTQLNAVEFLWDPAKRASAFIQVHCISTEFTPRKHGGEKGVPFRVQIDTFKQNENGEYTEHLHSASCQIKVFKPKGADRKQKTDREKMEKRTAQEKEKYQPSYETTILTECSPWPDVAYQVNSAPSPSYNGSPNSFGLGEGNASPTHPVEALPVGSDHLLPSASIQDAQQWLHRNRFSQFCRLFASFSGADLLKMSRDDLVQICGPADGIRLFNAIKGRNVRPKMTIYVCQELEQNRVPLQQKRDGSGDSNLSVYHAIFLEELTTLELIEKIANLYSISPQHIHRVYRQGPTGIHVVVSNEMVQNFQDESCFVLSTIKAESNDGYHIILKCGL
B4: HMGA2, P52926 (protein)
chain: MSARGEGAGQPSTSAQGQPAAPAPQKRGRGRPRKQQQEPTGEPSPKRPRGRPKGSKNKSPSKAAQKKAEATGEKRPRGRPRKWPQQVVQKKPAQEETEETSSQESAEED
B5: PIAS2, O75928 (protein)
chain: MADFEELRNMVSSFRVSELQVLLGFAGRNKSGRKHDLLMRALHLLKSGCSPAVQIKIRELYRRRYPRTLEGLSDLSTIKSSVFSLDGGSSPVEPDLAVAGIHSLPSTSVTPHSPSSPVGSVLLQDTKPTFEMQQPSPPIPPVHPDVQLKNLPFYDVLDVLIKPTSLVQSSIQRFQEKFFIFALTPQQVREICISRDFLPGGRRDYTVQVQLRLCLAETSCPQEDNYPNSLCIKVNGKLFPLPGYAPPPKNGIEQKRPGRPLNITSLVRLSSAVPNQISISWASEIGKNYSMSVYLVRQLTSAMLLQRLKMKGIRNPDHSRALIKEKLTADPDSEIATTSLRVSLMCPLGKMRLTIPCRAVTCTHLQCFDAALYLQMNEKKPTWICPVCDKKAAYESLILDGLFMEILNDCSDVDEIKFQEDGSWCPMRPKKEAMKVSSQPCTKIESSSVLSKPCSVTVASEASKKKVDVIDLTIESSSDEEEDPPAKRKCIFMSETQSSPTKGVLMYQPSSVRVPSVTSVDPAAIPPSLTDYSVPFHHTPISSMSSDLPGLDFLSLIPVDPQYCPPMFLDSLTSPLTASSTSVTTTSSHESSTHVSSSSSRSETGVITSSGSNIPDIISLD
B6: DDX58, O95786 (protein)
chain: MTTEQRRSLQAFQDYIRKTLDPTYILSYMAPWFREEEVQYIQAEKNNKGPMEAATLFLKFLLELQEEGWFRGFLDALDHAGYSGLYEAIESWDFKKIEKLEEYRLLLKRLQPEFKTRIIPTDIISDLSECLINQECEEILQICSTKGMMAGAEKLVECLLRSDKENWPKTLKLALEKERNKFSELWIVEKGIKDVETEDLEDKMETSDIQIFYQEDPECQNLSENSCPPSEVSDTNLYSPFKPRNYQLELALPAMKGKNTIICAPTGCGKTFVSLLICEHHLKKFPQGQKGKVVFFANQIPVYEQQKSVFSKYFERHGYRVTGISGATAENVPVEQIVENNDIIILTPQILVNNLKKGTIPSLSIFTLMIFDECHNTSKQHPYNMIMFNYLDQKLGGSSGPLPQVIGLTASVGVGDAKNTDEALDYICKLCASLDASVIATVKHNLEELEQVVYKPQKFFRKVESRISDKFKYIIAQLMRDTESLAKRICKDLENLSQIQNREFGTQKYEQWIVTVQKACMVFQMPDKDEESRICKALFLYTSHLRKYNDALIISEHARMKDALDYLKDFFSNVRAAGFDEIEQDLTQRFEEKLQELESVSRDPSNENPKLEDLCFILQEEYHLNPETITILFVKTRALVDALKNWIEGNPKLSFLKPGILTGRGKTNQNTGMTLPAQKCILDAFKASGDHNILIATSVADEGIDIAQCNLVILYEYVGNVIKMIQTRGRGRARGSKCFLLTSNAGVIEKEQINMYKEKMMNDSILRLQTWDEAVFREKILHIQTHEKFIRDSQEKPKPVPDKENKKLLCRKCKALACYTADVRVIEECHYTVLGDAFKECFVSRPHPKPKQFSSFEKRAKIFCARQNCSHDWGIHVKYKTFEIPVIKIESFVVEDIATGVQTLYSKWKDFHFEKIPFDPAEMSK
B7: TCF12, Q99081 (protein)
chain: MNPQQQRMAAIGTDKELSDLLDFSAMFSPPVNSGKTRPTTLGSSQFSGSGIDERGGTTSWGTSGQPSPSYDSSRGFTDSPHYSDHLNDSRLGAHEGLSPTPFMNSNLMGKTSERGSFSLYSRDTGLPGCQSSLLRQDLGLGSPAQLSSSGKPGTAYYSFSATSSRRRPLHDSAALDPLQAKKVRKVPPGLPSSVYAPSPNSDDFNRESPSYPSPKPPTSMFASTFFMQDGTHNSSDLWSSSNGMSQPGFGGILGTSTSHMSQSSSYGNLHSHDRLSYPPHSVSPTDINTSLPPMSSFHRGSTSSSPYVAASHTPPINGSDSILGTRGNAAGSSQTGDALGKALASIYSPDHTSSSFPSNPSTPVGSPSPLTGTSQWPRPGGQAPSSPSYENSLHSLQSRMEDRLDRLDDAIHVLRNHAVGPSTSLPAGHSDIHSLLGPSHNAPIGSLNSNYGGSSLVASSRSASMVGTHREDSVSLNGNHSVLSSTVTTSSTDLNHKTQENYRGGLQSQSGTVVTTEIKTENKEKDENLHEPPSSDDMKSDDESSQKDIKVSSRGRTSSTNEDEDLNPEQKIEREKERRMANNARERLRVRDINEAFKELGRMCQLHLKSEKPQTKLLILHQAVAVILSLEQQVRERNLNPKAACLKRREEEKVSAVSAEPPTTLPGTHPGLSETTNPMGHM
B8: ZBTB38, Q8NAP3 (protein)
chain: MTVMSLSRDLKDDFHSDTVLSILNEQRIRGILCDVTIIVEDTKFKAHSNVLAASSLYFKNIFWSHTICISSHVLELDDLKAEVFTEILNYIYSSTVVVKRQETVTDLAAAGKKLGISFLEDLTDRNFSNSPGPYVFCITEKGVVKEEKNEKRHEEPAITNGPRITNAFSIIETENSNNMFSPLDLRASFKKVSDSMRTASLCLERTDVCHEAEPVRTLAEHSYAVSSVAEAYRSQPVREHDGSSPGNTGKENCEALAAKPKTCRKPKTFSIPQDSDSATENIPPPPVSNLEVNQERSPQPAAVLTRSKSPNNEGDVHFSREDENQSSDVPGPPAAEVPPLVYNCSCCSKAFDSSTLLSAHMQLHKPTQEPLVCKYCNKQFTTLNRLDRHEQICMRSSHMPIPGGNQRFLENYPTIGQNGGSFTGPEPLLSENRIGEFSSTGSTLPDTDHMVKFVNGQMLYSCVVCKRSYVTLSSLRRHANVHSWRRTYPCHYCNKVFALAEYRTRHEIWHTGERRYQCIFCLETFMTYYILKNHQKSFHAIDHRLSISKKTANGGLKPSVYPYKLYRLLPMKCKRAPYKSYRNSSYENARENSQMNESAPGTYVVQNPHSSELPTLNFQDTVNTLTNSPAIPLETSACQDIPTSANVQNAEGTKWGEEALKMDLDNNFYSTEVSVSSTENAVSSDLRAGDVPVLSLSNSSENAASVISYSGSAPSVIVHSSQFSSVIMHSNAIAAMTSSNHRAFSDPAVSQSLKDDSKPEPDKVGRFASRPKSIKEKKKTTSHTRGEIPEESNYVADPGGSLSKTTNIAEETSKIETYIAKPALPGTSTNSNVAPLCQITVKIGNEAIVKRHILGSKLFYKRGRRPKYQMQEEPLPQGNDPEPSGDSPLGLCQSECMEMSEVFDDASDQDSTDKPWRPYYNYKPKKKSRQLKKMRKVNWRKEHGNRSPSHKCKYPAELDCAVGKAPQDKPFEEEETKEMPKLQCELCDGDKAVGAGNQGRPHRHLTSRPYACELCAKQFQSPSTLKMHMRCHTGEKPYQCKTCGRCFSVQGNLQKHERIHLGLKEFVCQYCNKAFTLNETLKIHERIHTGEKRYHCQFCFQRFLYLSTKRNHEQRHIREHNGKGYACFQCPKICKTAAALGMHQKKHLFKSPSQQEKIGDVCHENSNPLENQHFIGSEDNDQKDNIQTGVENVVL
B9: PIAS4, Q8N2W9 (protein)
chain: MAAELVEAKNMVMSFRVSDLQMLLGFVGRSKSGLKHELVTRALQLVQFDCSPELFKKIKELYETRYAKKNSEPAPQPHRPLDPLTMHSTYDRAGAVPRTPLAGPNIDYPVLYGKYLNGLGRLPAKTLKPEVRLVKLPFFNMLDELLKPTELVPQNNEKLQESPCIFALTPRQVELIRNSRELQPGVKAVQVVLRICYSDTSCPQEDQYPPNIAVKVNHSYCSVPGYYPSNKPGVEPKRPCRPINLTHLMYLSSATNRITVTWGNYGKSYSVALYLVRQLTSSELLQRLKTIGVKHPELCKALVKEKLRLDPDSEIATTGVRVSLICPLVKMRLSVPCRAETCAHLQCFDAVFYLQMNEKKPTWMCPVCDKPAPYDQLIIDGLLSKILSECEDADEIEYLVDGSWCPIRAEKERSCSPQGAILVLGPSDANGLLPAPSVNGSGALGSTGGGGPVGSMENGKPGADVVDLTLDSSSSSEDEEEEEEEEEDEDEEGPRPKRRCPFQKGLVPAC

Target: nucleoprotein N of Crimean-Congo hemorrhagic fever virus
Test: AlphaScreen luminescence signal relative to Venus negative control (fold); higher = stronger binding to CCHFV N
Protocol: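 AlphaScreen binding of cell-free made, FLAG-GST-tagged human transcription factors and regulators (crude translation products) to biotinylated N protein; signal as fold of the FLAG-GST-Venus control. One pass.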

Binder | AlphaScreen luminescence signal
B1 | 2.42
B2 | 1.44
B3 | 2.6
B4 | 12.7
B5 | 6.56
B6 | 2.42
B7 | 1.91
B8 | 1.95
B9 | 3.63
